Assay results as given in PMC9911399, “Two distinct binding modes provide the RNA-binding protein RbFox with extraordinary sequence specificity”.
Where a chain is given by its changes, count along the chain named. The list shows a part of the results.

T1: RBFOX1 RRM (Homo sapiens, UniProt Q9NWB1 109-208)
T1 sequence: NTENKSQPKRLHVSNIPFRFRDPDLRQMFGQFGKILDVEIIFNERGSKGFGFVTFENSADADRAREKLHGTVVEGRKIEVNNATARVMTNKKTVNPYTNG

B1: UUACCGU (DNA:RNA)
RNA: GGGAGACCGGAAUUCAGAUUGUCCUUACCGUUUAAAUCCCGUCGUAGCCACCA
DNA 1: CAATCTGAATTCCGGTCTCCC
DNA 2: TGGTGGCTACGACGGGATT
B2: UCCGGUU (DNA:RNA)
RNA: B1 RNA with U26C, A27C, C28G, C29G, G30U
DNA 1: CAATCTGAATTCCGGTCTCCC
DNA 2: TGGTGGCTACGACGGGATT
B3: GUCAAGU (DNA:RNA)
RNA: B1 RNA with U25G, A27C, C28A, C29A
DNA 1: CAATCTGAATTCCGGTCTCCC
DNA 2: TGGTGGCTACGACGGGATT
B4: AGUGACU (DNA:RNA)
RNA: B1 RNA with U25A, U26G, A27U, C28G, C29A, G30C
DNA 1: CAATCTGAATTCCGGTCTCCC
DNA 2: TGGTGGCTACGACGGGATT
B5: GUUUUCG (DNA:RNA)
RNA: B1 RNA with U25G, A27U, C28U, C29U, G30C, U31G
DNA 1: CAATCTGAATTCCGGTCTCCC
DNA 2: TGGTGGCTACGACGGGATT
B6: UUAAUUA (DNA:RNA)
RNA: B1 RNA with C28A, C29U, G30U, U31A
DNA 1: CAATCTGAATTCCGGTCTCCC
DNA 2: TGGTGGCTACGACGGGATT
B7: AGAUGGU (DNA:RNA)
RNA: B1 RNA with U25A, U26G, C28U, C29G
DNA 1: CAATCTGAATTCCGGTCTCCC
DNA 2: TGGTGGCTACGACGGGATT
B8: CAUGUAG (DNA:RNA)
RNA: GGGAGACCGGAAUUCAGAUUGUCCCAUGUAGUUAAAUCCCGUCGUAGCCACCA
DNA 1: CAATCTGAATTCCGGTCTCCC
DNA 2: TGGTGGCTACGACGGGATT
B9: CUCUUUU (DNA:RNA)
RNA: B8 RNA with A26U, U27C, G28U, A30U, G31U
DNA 1: CAATCTGAATTCCGGTCTCCC
DNA 2: TGGTGGCTACGACGGGATT
B10: CAGAACA (DNA:RNA)
RNA: B8 RNA with U27G, G28A, U29A, A30C, G31A
DNA 1: CAATCTGAATTCCGGTCTCCC
DNA 2: TGGTGGCTACGACGGGATT
B11: UAUGGUU (DNA:RNA)
RNA: B8 RNA with C25U, U29G, A30U, G31U
DNA 1: CAATCTGAATTCCGGTCTCCC
DNA 2: TGGTGGCTACGACGGGATT
B12: UUCUGCC (DNA:RNA)
RNA: B1 RNA with A27C, C28U, C29G, G30C, U31C
DNA 1: CAATCTGAATTCCGGTCTCCC
DNA 2: TGGTGGCTACGACGGGATT
B13: CCUUACA (DNA:RNA)
RNA: B8 RNA with A26C, G28U, U29A, A30C, G31A
DNA 1: CAATCTGAATTCCGGTCTCCC
DNA 2: TGGTGGCTACGACGGGATT
B14: CACGGGG (DNA:RNA)
RNA: B8 RNA with U27C, U29G, A30G
DNA 1: CAATCTGAATTCCGGTCTCCC
DNA 2: TGGTGGCTACGACGGGATT
B15: GCCUUCU (DNA:RNA)
RNA: B8 RNA with C25G, A26C, U27C, G28U, A30C, G31U
DNA 1: CAATCTGAATTCCGGTCTCCC
DNA 2: TGGTGGCTACGACGGGATT
B16: AUAAGAG (DNA:RNA)
RNA: B8 RNA with C25A, A26U, U27A, G28A, U29G
DNA 1: CAATCTGAATTCCGGTCTCCC
DNA 2: TGGTGGCTACGACGGGATT
B17: GGCUGCA (DNA:RNA)
RNA: GGGAGACCGGAAUUCAGAUUGUCCGGCUGCAUUAAAUCCCGUCGUAGCCACCA
DNA 1: CAATCTGAATTCCGGTCTCCC
DNA 2: TGGTGGCTACGACGGGATT
B18: UGUGGCA (DNA:RNA)
RNA: B17 RNA with G25U, C27U, U28G
DNA 1: CAATCTGAATTCCGGTCTCCC
DNA 2: TGGTGGCTACGACGGGATT
B19: UUCAAAU (DNA:RNA)
RNA: B1 RNA with A27C, C28A, C29A, G30A
DNA 1: CAATCTGAATTCCGGTCTCCC
DNA 2: TGGTGGCTACGACGGGATT
B20: GCGCUGA (DNA:RNA)
RNA: B17 RNA with G26C, C27G, U28C, G29U, C30G
DNA 1: CAATCTGAATTCCGGTCTCCC
DNA 2: TGGTGGCTACGACGGGATT
B21: GACACGU (DNA:RNA)
RNA: B1 RNA with U25G, U26A, A27C, C28A
DNA 1: CAATCTGAATTCCGGTCTCCC
DNA 2: TGGTGGCTACGACGGGATT
B22: UGUAAGU (DNA:RNA)
RNA: B1 RNA with U26G, A27U, C28A, C29A
DNA 1: CAATCTGAATTCCGGTCTCCC
DNA 2: TGGTGGCTACGACGGGATT
B23: AGACUCG (DNA:RNA)
RNA: B8 RNA with C25A, A26G, U27A, G28C, A30C
DNA 1: CAATCTGAATTCCGGTCTCCC
DNA 2: TGGTGGCTACGACGGGATT
B24: AUCCGUC (DNA:RNA)
RNA: B17 RNA with G25A, G26U, U28C, C30U, A31C
DNA 1: CAATCTGAATTCCGGTCTCCC
DNA 2: TGGTGGCTACGACGGGATT
B25: GUCAAGA (DNA:RNA)
RNA: B17 RNA with G26U, U28A, G29A, C30G
DNA 1: CAATCTGAATTCCGGTCTCCC
DNA 2: TGGTGGCTACGACGGGATT
B26: AUACGGA (DNA:RNA)
RNA: B1 RNA with U25A, C29G, U31A
DNA 1: CAATCTGAATTCCGGTCTCCC
DNA 2: TGGTGGCTACGACGGGATT
B27: UCAAUCU (DNA:RNA)
RNA: B1 RNA with U26C, C28A, C29U, G30C
DNA 1: CAATCTGAATTCCGGTCTCCC
DNA 2: TGGTGGCTACGACGGGATT
B28: GCCACGG (DNA:RNA)
RNA: B17 RNA with G26C, U28A, G29C, C30G, A31G
DNA 1: CAATCTGAATTCCGGTCTCCC
DNA 2: TGGTGGCTACGACGGGATT
B29: CACAACU (DNA:RNA)
RNA: B8 RNA with U27C, G28A, U29A, A30C, G31U
DNA 1: CAATCTGAATTCCGGTCTCCC
DNA 2: TGGTGGCTACGACGGGATT
B30: GUCGACU (DNA:RNA)
RNA: B17 RNA with G26U, U28G, G29A, A31U
DNA 1: CAATCTGAATTCCGGTCTCCC
DNA 2: TGGTGGCTACGACGGGATT
B31: UACGCAA (DNA:RNA)
RNA: B8 RNA with C25U, U27C, U29C, G31A
DNA 1: CAATCTGAATTCCGGTCTCCC
DNA 2: TGGTGGCTACGACGGGATT

target: T1, RBFOX1 RRM; assay: EMSA; HiTS-Eq, 1 nM pool, 10 min; buffer printed only for the single-RNA assays: 10 mM Tris pH 7.5, 150 mM NaCl, 3.4 mM EDTA, 0.001% NP-40, 30 C; conditions: tags: His6 N-terminal (pET28a); label: 5' 32P
Method in brief: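 A pool of RNA with 7 randomized nucleotides, 5′-radiolabelled and with DNA-annealed flanks, was equilibrated at 1 nM for 10 min in 50 µL with purified RbFox RRM, wild type or mutant, across increasing protein concentrations. Free RNA was separated by 8% native PAGE, excised, reverse-transcribed, barcoded by PCR and sequenced. Relative association constants were obtained from read-count changes of each RNA species versus the control reaction and normalised to the cognate motif.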

Binder | binding signal
B1 | 0.00797 KA relative to UGCAUGU
B2 | 0.0076 KA relative to UGCAUGU
B3 | 0.00959 KA relative to UGCAUGU
B4 | 0.00875 KA relative to UGCAUGU
B5 | 0.0268 KA relative to UGCAUGU
B6 | 0.00488 KA relative to UGCAUGU
B7 | 0.0135 KA relative to UGCAUGU
B8 | 0.00711 KA relative to UGCAUGU
B9 | 0.00743 KA relative to UGCAUGU
B10 | 0.00468 KA relative to UGCAUGU
B11 | 0.0166 KA relative to UGCAUGU
B12 | 0.0181 KA relative to UGCAUGU
B13 | 0.00251 KA relative to UGCAUGU
B14 | 0.00447 KA relative to UGCAUGU
B15 | 0.0164 KA relative to UGCAUGU
B16 | 0.00975 KA relative to UGCAUGU

Binder | binding signal
B17 | 0.0278 KA relative to UGCAUGU
B18 | 0.0223 KA relative to UGCAUGU
B19 | 0.00324 KA relative to UGCAUGU
B20 | 0.0232 KA relative to UGCAUGU
B21 | 0.0126 KA relative to UGCAUGU
B22 | 0.0129 KA relative to UGCAUGU
B23 | 0.0108 KA relative to UGCAUGU
B24 | 0.00536 KA relative to UGCAUGU
B25 | 0.0104 KA relative to UGCAUGU
B26 | 0.000461 KA relative to UGCAUGU
B27 | 0.00218 KA relative to UGCAUGU
B28 | 0.0134 KA relative to UGCAUGU
B29 | 0.000963 KA relative to UGCAUGU
B30 | 0.0119 KA relative to UGCAUGU
B31 | 0.00623 KA relative to UGCAUGU
